Results reported in the supplement of paper PMC12067230.
Single values of this set are uncertain.

Assay: amyloid nucleation score relative to library mode (yeast Sup35 reporter selection) (log enrichment difference); higher = more amyloid nucleation; sequences are the first 22 residues of the Bri2 peptide extended by up to 12 random residues
Conditions: random library (experiment): 1;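 active = nucleation score significantly above 0 at FDR 0.05; inactive = not significantly above 0 or absent from output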
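Note: [psi-pin-] Saccharomyces cerevisiae expressing SupN fusions, induced by 100 µM Cu2SO4, selected 7 d at 30 °C without adenine and uracil, scored by deep sequencing of output versus input.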

Sequence | amyloid nucleation score
EASNCFAIRHFENKFAVETLICARLRVSLHVGKV | inactive
EASNCFAIRHFENKFAVETLICEWAQLKALDVLY | inactive
EASNCFAIRHFENKFAVETLICRCQDRVYCIRVT | inactive
EASNCFAIRHFENKFAVETLICEVIPRDGCYREG | inactive
EASNCFAIRHFENKFAVETLICEWFRSGRIWP | inactive
EASNCFAIRHFENKFAVETLICPRGRSCL | inactive
EASNCFAIRHFENKFAVETLICRVSRSRKQWALS | inactive
EASNCFAIRHFENKFAVETLICDSASVLRGRAAW | 2.21
EASNCFAIRHFENKFAVETLICCFWGPHDSRPCW | 7.64
EASNCFAIRHFENKFAVETLICDSLSTKYGLNLR | inactive
EASNCFAIRHFENKFAVETLICALG | 4.42
EASNCFAIRHFENKFAVETLICCYVVTLCMWGYA | inactive
EASNCFAIRHFENKFAVETLICICPRSACGEMST | 6.74
EASNCFAIRHFENKFAVETLICADRFSWGWLEPG | inactive
EASNCFAIRHFENKFAVETLICLISTLAGMGSRW | -0.359
EASNCFAIRHFENKFAVETLICHEEHPVFEGRCH | inactive
EASNCFAIRHFENKFAVETLICES | inactive
EASNCFAIRHFENKFAVETLICQSSTYGV | -0.348
EASNCFAIRHFENKFAVETLICNHMGCGHTSYVG | 6.25
EASNCFAIRHFENKFAVETLICLRYGEKIRWRYA | inactive
EASNCFAIRHFENKFAVETLICAYKDSKLVSRWL | inactive

Sequence | amyloid nucleation score
EASNCFAIRHFENKFAVETLICIQRMCGNLDKVP | inactive
EASNCFAIRHFENKFAVETLICACWMLMVRVFVN | inactive
EASNCFAIRHFENKFAVETLICVARSRGEKPLGC | inactive
EASNCFAIRHFENKFAVETLICHCTLF | 8.58
EASNCFAIRHFENKFAVETLICTLSPFNTVQYQL | inactive
EASNCFAIRHFENKFAVETLICKEQWSESSMIRA | inactive
EASNCFAIRHFENKFAVETLICRC | inactive
EASNCFAIRHFENKFAVETLICLLAASCTNGRWL | -0.203
EASNCFAIRHFENKFAVETLICFIPTCGRYTIYV | inactive
EASNCFAIRHFENKFAVETLICLHAKKFPSGLHI | inactive
EASNCFAIRHFENKFAVETLICGGSVGPFEGCEG | inactive
EASNCFAIRHFENKFAVETLICAAAVRSVWAGGA | inactive
EASNCFAIRHFENKFAVETLICMNYGCVR | inactive
EASNCFAIRHFENKFAVETLICCSLTRLFNEPLG | 8.79
EASNCFAIRHFENKFAVETLICAKRVGS | inactive
EASNCFAIRHFENKFAVETLICCTCSRQPLRGMQ | 8.84
EASNCFAIRHFENKFAVETLICLQCTLALLWDGV | inactive
EASNCFAIRHFENKFAVETLICVSAVLCSFDAE | 4.97
EASNCFAIRHFENKFAVETLICPMKWTVKSTCPA | inactive
EASNCFAIRHFENKFAVETLICLFLGMNLIRGDQ | 0.0299

Same assay, conditions: random library (experiment): 2

Sequence | amyloid nucleation score
EASNCFAIRHFENKFAVETLICQHAESRPLKRPA | 0.386
EASNCFAIRHFENKFAVETLICTHRTGSVVSRSR | inactive
EASNCFAIRHFENKFAVETLICFIEICLKRLVT | inactive
EASNCFAIRHFENKFAVETLICHDASFRVIRIGS | inactive
EASNCFAIRHFENKFAVETLICVQCLGMSWLRHT | 5.46
EASNCFAIRHFENKFAVETLICCMTL | 7.34
EASNCFAIRHFENKFAVETLICWGF | 5.51
EASNCFAIRHFENKFAVETLICDGLCFLMSMPSC | inactive
EASNCFAIRHFENKFAVETLICLFHDSSYRNLLR | -0.0344
EASNCFAIRHFENKFAVETLICEQFCLSGEDVIG | inactive
EASNCFAIRHFENKFAVETLICCMGNSYSLTIGV | 6.82
EASNCFAIRHFENKFAVETLICCLTIIVGMYPRS | inactive
EASNCFAIRHFENKFAVETLICIMNTQLQGVWFC | inactive
EASNCFAIRHFENKFAVETLICHSTLRVNGFSWW | inactive
EASNCFAIRHFENKFAVETLICYFKT | inactive
EASNCFAIRHFENKFAVETLICYLHFCVMKGYGV | inactive
EASNCFAIRHFENKFAVETLICYAVRIDRRATC | inactive
EASNCFAIRHFENKFAVETLICNGGRLYKDPVLV | inactive
EASNCFAIRHFENKFAVETLICCCSFLLR | 5.37
EASNCFAIRHFENKFAVETLICWTVSVMAGIVMR | inactive
EASNCFAIRHFENKFAVETLICEECVGWPRGGPR | 4.28
EASNCFAIRHFENKFAVETLICVVVFYSANRSRQ | inactive
EASNCFAIRHFENKFAVETLICYDGVFMTAMRSW | inactive
EASNCFAIRHFENKFAVETLICEKCHI | inactive
EASNCFAIRHFENKFAVETLICVRWSRCPTACQV | inactive
EASNCFAIRHFENKFAVETLICERCF | inactive

Same assay, conditions: random library (experiment): 3

Sequence | amyloid nucleation score
EASNCFAIRHFENKFAVETLICNVQVGSREVGSG | 7.86
EASNCFAIRHFENKFAVETLICWCTAYRIGLGSS | inactive
EASNCFAIRHFENKFAVETLICRVSVLGRCGQVR | inactive
EASNCFAIRHFENKFAVETLICILLWFTDGRNGK | 3.13
EASNCFAIRHFENKFAVETLICMVSMPNCKVRLR | inactive
EASNCFAIRHFENKFAVETLICRWFLGLVLSLR | inactive
EASNCFAIRHFENKFAVETLICCGEWMLTLVMVE | inactive
EASNCFAIRHFENKFAVETLICTYAQELGDCHSS | inactive
EASNCFAIRHFENKFAVETLICLWWWSVQEGSLG | 0.566
EASNCFAIRHFENKFAVETLICMVYYMQVSLAEW | inactive
EASNCFAIRHFENKFAVETLICHGSSNLRYRLHR | 4.16
EASNCFAIRHFENKFAVETLICLQVGRRRRSAG | inactive
EASNCFAIRHFENKFAVETLICYMLRVPDQDRLV | inactive
EASNCFAIRHFENKFAVETLICTHMVLLDQRLNM | inactive
EASNCFAIRHFENKFAVETLICTPQWGCRQCFEH | 4.45
EASNCFAIRHFENKFAVETLICFNRAEHEVGGPG | inactive
EASNCFAIRHFENKFAVETLICRKPEKEMPRFGL | inactive
EASNCFAIRHFENKFAVETLICDERCAMSWSLCT | inactive
